From article PMC12136788
Some of the results follow.

T1: UNK ZnF1-3 (human, UniProt Q9C0B0 31-174)
T1 sequence: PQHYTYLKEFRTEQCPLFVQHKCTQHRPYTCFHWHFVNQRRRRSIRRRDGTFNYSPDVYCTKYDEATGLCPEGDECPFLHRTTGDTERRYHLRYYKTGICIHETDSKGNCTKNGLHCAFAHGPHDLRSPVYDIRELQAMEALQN

B1: chr2:84460416:84460417:-_ENSMUSG00000034101_ENSMUST00000111697|mus_hu|motif|central (ssRNA)
RNA: GGGAGUUCUACAGUCCGACGAUCGCCACCUGGAUAACCAUCUUCAUAGUGGCGACUAUAACCAUCAGGAGGGUAGUGGAAGUUCCGGGGAAGGGUAGCAGUGCCAGCUUGCCCCACAUAGGGACCAGGUCCCCCAUUGCCAUUCAACAGAGGAUUGAGCAUCA
B2: chr3:179287964:179287965:+_ENSG00000136518_ENST00000429709|hu_hu|hu_hu_hu_mus_True|88_88 (ssRNA)
RNA: GGGAGUUCUACAGUCCGACGAUCCUUGAGUGGUGAGAUGGCCUCCAUAUUCUCCCUGGGCACGCGGAGGGCAUUGGUGUCUAUGUAGUAGGUGGGCCCGCCCUGCUUGCCUUUGUCACCAUCAAUCUCCAUCAUUGUACUUCCCAACAGAGGAUUGAGCAUCA
B3: chr17:21094002:21094003:+_ENSMUSG00000007564_ENSMUST00000007708|mus_mus|FALSE|FALSE (ssRNA)
RNA: GGGAGUUCUACAGUCCGACGAUCCAUGUAGCGAACACGCCAAGACUUGUCCUCAGCAGCCUGUCGCAAGGUGGGCAUCACUAAGGCCUCCAGGUCCUCCUGUGGCAGAAGCUGGGCAAUAUUCACACAUGCCUCCACUGCCAGCAACAGAGGAUUGAGCAUCA
B4: chr15:98867917:98867918:+_ENSMUSG00000043091_ENSMUST00000058914|mus_mus|motif|central (ssRNA)
RNA: GGGAGUUCUACAGUCCGACGAUCAGGGUCACAUUUCACCAUCUGGUUGGCUGGCUCAAAGCAGGCAUUGGUGAUCUCUGCGGCUGUAAGCUGCUCAUGGUAGGCUUUCUCAGCAGAGAUGACAGGGGCAUAAGUGGCCAGAGGCAACAGAGGAUUGAGCAUCA
B5: 135292008_135298915_3170_CDS_ENSG00000155561_ENST00000285968|human|control|control (ssRNA)
RNA: GGGAGUUCUACAGUCCGACGAUCAUAUAUGACCUGGUAACAUAGCUCAGCCAGCUGAGGAGAUUCUCGCACCGCCACUGGGCCUGUUCUCCCUUCCGUUCCUUUCUCCAAGAUGUUUAGAAUGGCGUGAAGGCAUGUCCGAGGCAACAGAGGAUUGAGCAUCA
B6: chr2:171811166:171811167:+_ENSG00000115806_ENST00000234160|hu_mus|FALSE|FALSE (ssRNA)
RNA: GGGAGUUCUACAGUCCGACGAUCUCCUUCUUCAAAGGGGCGUGUAGGUAUUCGGUGCAAAUAACCAUAGCCAAUGCCACAUCCAAGGCUGCCUUCUCCGCCCCAUGCAGAGUUUGGUGUGAUGAUCACUUCUCUGCAGUUGUCCAACAGAGGAUUGAGCAUCA
B7: chr2:42510052:42510053:+_ENSG00000143924_ENST00000318522|hu_hu|motif|central (ssRNA)
RNA: GGGAGUUCUACAGUCCGACGAUCACAGUCUGUAUGGCCCAGGUAGUGUCGCUGAGUUCUCUCCUCAUAAUUAAAUAGUACGGCGGCUGAUGCAAUGAAAUAAACUAUUUUCCCGGUCGGAAGAAGGUAAACAUUAGCUCUACACAACAGAGGAUUGAGCAUCA
B8: chr2:42509997:42509998:+_ENSG00000143924_ENST00000318522|hu_mus|hu_hu_hu_mus_True|28_78 (ssRNA)
RNA: GGGAGUUCUACAGUCCGACGAUCUCGCUGAGUCCUCUCCUCAUAAUUAAACAGGACUACUACUGAUGCGAUAAAAUAAACUAUCUCCCCUGUGGGAAGCAGGUAUACAUUAGCUCUACAGUCCUUUCCUCGAUAACCGUAUACCAACAGAGGAUUGAGCAUCA
B9: chr9:59240146:59240147:-_ENSMUSG00000025234_ENSMUST00000171975|mus_mus|FALSE|FALSE (ssRNA)
RNA: GGGAGUUCUACAGUCCGACGAUCGCGUCAAGGCCACAGAGGAGUAGGCUGGGAUAGGAUCAUUCAUGAACUGAAGCAACUAAACCCUUUAACAGGCCGAGGCAUUUGCUUAGAAUGUGACUUCCUGGAUCUAGAUCCAGAAGCCAACAGAGGAUUGAGCAUCA
B10: 20213982_20218679_917_3pUTR_ENSMUSG00000020142_ENSMUST00000109594|mouse|control|control (ssRNA)
RNA: GGGAGUUCUACAGUCCGACGAUCCUUCUCCCUCGGGGCCUAGCUUCUUUAGAGCCACUCCUAACACCAGGGCAAAAAGGACGAGACCUAAAAUGUUCAUCCCUUCCACAUCUGUUACAACGGGGAUCUUCUCUUUGGUCACGUCAACAGAGGAUUGAGCAUCA
B11: chr1:46159212:46159213:+_ENSG00000159596_ENST00000372025|hu_mus|motif|central (ssRNA)
RNA: GGGAGUUCUACAGUCCGACGAUCUCUGAUCCCUCCCAAGAAAGCUAGGAAACCGGCUCCAUAAGCCAUCUGAGUGAAAGCGGGGACGGGGAUAUAAGACUUUGUUAUUACCAUGAGAAGUGGGGGAGCAGUAAAGGGGAUUAACAACAGAGGAUUGAGCAUCA
B12: chr15:72934872:72934873:-_ENSMUSG00000036698_ENSMUST00000044113|mus_mus|FALSE|FALSE (ssRNA)
RNA: GGGAGUUCUACAGUCCGACGAUCGACAUUUGGUCUGGGGAUACAUUUCAUAUUAAAAGUGUCACAAGUAAGCAUGGGCUACUACAGAAAGUACUUUGCUUCCAGUACUUUGGCCCAUCAGAAAGAAAACCUAUCCUUCAAGGUCAACAGAGGAUUGAGCAUCA
B13: chr1:39494564:39494565:+_ENSG00000168653_ENST00000372967|hu_hu|hu_hu_hu_mus_True|1_108 (ssRNA)
RNA: GGGAGUUCUACAGUCCGACGAUCAUGUGCACGUCUCAUCGUUUUGUACCGAAGCAAGCACUCUUCGAAGUCAUCGAACUCUAUCUUGCACUCCUUUUUCGCCCGGGUCCCACCGAUCCCGUGUGCACACUCUAUCCAUUCUUUCAACAGAGGAUUGAGCAUCA
B14: chr11:75505782:75505783:+_ENSMUSG00000017776_ENSMUST00000017920|mus_hu|FALSE|FALSE (ssRNA)
RNA: GGGAGUUCUACAGUCCGACGAUCCGCCUCCUCCUGCCUGAGAAUCACUCCACUACCCUGCCUGGAUCUGGAAACUGGUUCUAUCAACGUUGUAGUGUCCAAAUAGUGUAUUUUGUAGAAUUCCAGUAAAGCAGGCAAUGAAUCCAACAGAGGAUUGAGCAUCA
B15: chr1:78428562:78428563:-_ENSG00000162613_ENST00000370768|hu_mus|motif|central (ssRNA)
RNA: GGGAGUUCUACAGUCCGACGAUCAAUUGUAAAUAACUUCAUAUUGGGAUCUGCAUUAGGUGGAGGGCUUCUCUGCAGUUCGGUUCUUGCACCAGACUGUUGGCUUAUGCUUUUUAUGGUUUCACCUCCUUUUCCAAUGAUCAGCAACAGAGGAUUGAGCAUCA
B16: 101254855_101254975_2860_3pUTR_ENSMUSG00000042035_ENSMUST00000043983|mouse|control|control (ssRNA)
RNA: GGGAGUUCUACAGUCCGACGAUCGUUUUGAGGAUGAGCUUGCCGUCCGCGUCCGAGGGUUUGUGAACAUACCACAGCACGGCGAAGUGCGAGUUCGGGCUGGUCUGGGACUUGACUGAGCAGUUCAGCUGAAUUGCCCGGUUUCAACAGAGGAUUGAGCAUCA
B17: chr8:30550554:30550555:-_ENSG00000104687_ENST00000414019|hu_hu|FALSE|FALSE (ssRNA)
RNA: GGGAGUUCUACAGUCCGACGAUCGCCAGCGUUCUCCAGCUCCUCCGUGCAGUUGGUGCUGAUCAUUGAAUCAAAACUUCUAAGUACCUUAUCAUGCCGUAUCAUCAGUGAUGUCUUAGAACCCAGGGCUGACAGGAUCCCUGCCAACAGAGGAUUGAGCAUCA
B18: chr2:91455412:91455413:+_ENSMUSG00000040549_ENSMUST00000099716|mus_mus|FALSE|FALSE (ssRNA)
RNA: GGGAGUUCUACAGUCCGACGAUCCAUCAUCCGACACAGGUGGGCCUCCAAUUCUGACUCAUUCUUAUUAUCAAUCAUUGUAAGGUGGUCUAGGAUUUUAGGUCCUUUUAAUUUGCAUAAAGUAUGUAGAAGGGUCUUUAGAGUCAACAGAGGAUUGAGCAUCA
B19: chr2:178096590:178096591:-_ENSG00000116044_ENST00000397062|hu_hu|FALSE|FALSE (ssRNA)
RNA: GGGAGUUCUACAGUCCGACGAUCGAGGAUGCUGCUGAAGGAAUCCUCAAAAGCAUUAAGAAAAUGUGGACUACAGUUACCUACUUCUUUUUCCAUUGAGGGUAUAGAUGAGUAAAAAUGAUAAUUGUCAACUUCUGUCAGUUUCAACAGAGGAUUGAGCAUCA
B20: 48359645_48359765_414_CDS_ENSG00000134291_ENST00000256686|human|control|control (ssRNA)
RNA: GGGAGUUCUACAGUCCGACGAUCUACAAGGGAGUCUUGCUUAUUAAAUGUGACUUUCACCACUUUGAUGCCGUCAUCAUCCACAAGGACUGAAUGCGGAAACAGGAAGAAAACCACCAAACCAGAUGCCAGGAGACAAAGCAGCAACAGAGGAUUGAGCAUCA
B21: chr18:21054979:21054980:+_ENSG00000101782_ENST00000339486|hu_hu|motif|central (ssRNA)
RNA: GGGAGUUCUACAGUCCGACGAUCCUUUACUUCUUUUAAUUUAGGGGCUGGAACUUGAUCAUGGCCAAUAAAAGACAUAACGGAAAUGUGUUUCUUCAGUAGUACAACUGUUGGACAAGGAAUUCCAGCUCUCUGCAUUCUUGCCAACAGAGGAUUGAGCAUCA
B22: chr7:140404665:140404666:+_ENSG00000090266_ENST00000247866|hu_hu|hu_hu_hu_mus_False|98_98 (ssRNA)
RNA: GGGAGUUCUACAGUCCGACGAUCUGCUCCUACUCGUAGGCUGAGUCUACAGUGUCAGUCCUCGUCAUCAGGAGGGAUUCCCAGUUCUUCAUCUGUCCACUGUGAAGGAUCUGGAUAUGAAAAGUGACCCAGCACAGCAUCCGACAACAGAGGAUUGAGCAUCA

biological target: T1, UNK ZnF1-3; experiment: nsRBNS (natural sequence RNA bind-n-seq); RBNS binding buffer (assumed for nsRBNS): 25 mM Tris pH 7.5, 150 mM KCl, 3 mM MgCl2, 0.01% Triton X-100, 500 ug/ml BSA, 20 U/ml SUPERase-In, 4 C; UNK is unkempt and MSI1 is Musashi-1; names of the RNAs are library labels; protein concentration not given here; high values mean tight binding

Binder	binding signal
B1	0.987 enrichment R
B2	0.666 enrichment R
B3	0.963 enrichment R
B4	1.03 enrichment R
B5	1.11 enrichment R
B6	0.624 enrichment R
B7	1.67 enrichment R
B8	0.895 enrichment R
B9	1.83 enrichment R
B10	1.12 enrichment R
B11	1.5 enrichment R
B12	0.907 enrichment R
B13	0.599 enrichment R
B14	1.08 enrichment R
B15	0.475 enrichment R
B16	1.02 enrichment R
B17	0.844 enrichment R
B18	1.1 enrichment R
B19	1.26 enrichment R
B20	1.12 enrichment R
B21	0.944 enrichment R
B22	0.914 enrichment R
